# In the supplement of paper PMC12217912:
# This is one part of the list. Sequences were assembled here from the parent chain. Inactive controls read about 0.05.
# B1: TEV protease; numbered along this chain (parent)
# chain: MGESLFKGPRDYNPISSSICHLTNESDGHTTSLYGIGFGPFIITNKHLFRRNNGTLVVQSLHGVFKVKDTTTLQQHLVDGRDMIIIRMPKDFPPFPQKLKFREPQREERICLVTTNFQTKSMSSMVSDTSCTFPSGDGIFWKHWIQTKDGQCGSPLVSTRDGFIVGIHSASNFTNTNNYFTSVPKNFMELLTNQEAQQWVSGWRLNADSVLWGGHKVFMVKPEEPFQPVKEATQL
# Variants of: B1
# Assay: raw area under fraction-flipped curve 0-4 h after induction (AUC4h, not background-subtracted), DNA-recorder readout of cleavage of the substrate (dimensionless); higher = more cleavage of the substrate by the protease variant
# Details: temperature: 34 °C; time window: 0-4 h after rhamnose induction
# Protocol: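 In vivo DNA recorder in E. coli TOP10(DE3) ΔrhaA at 34 °C. Each TEVp single-site mutant (parent TEVp 0) is paired with a single-site variant of the 7-mer TEVs (canonical ENLYFQ|S). The substrate sits between flexible linkers in a Bxb1-sfGFP-TEVs-SsrA fusion, so cleavage stabilises Bxb1 and speeds flipping of a recombination array, read by NGS. The value is the raw area under the fraction-flipped curve over 0-4 h after rhamnose induction (AUC4h), with ≥20 reads per time point. It is not background-subtracted; inactive controls average about 0.047.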
# 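Also: Bxb1 expression induced with 0.2% (w/v) L-rhamnose at OD600 near 0.5, cultures sampled hourly, flipped fraction per protease–substrate barcode pair counted by paired-end Illumina sequencing.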
Variant,area with substrate ENAYFQS,area with substrate ENDYFQS,area with substrate ENEYFQS,area with substrate ENFYFQS,area with substrate ENGYFQS,area with substrate ENHYFQS,area with substrate ENNYFQS,area with substrate ENQYFQS,area with substrate ENRYFQS,area with substrate ENSYFQS,area with substrate ENTYFQS,area with substrate ENVYFQS,area with substrate ENCYFQS,area with substrate ENMYFQS,area with substrate ENPYFQS,area with substrate ENYYFQS,area with substrate ENIYFQS,area with substrate ENKYFQS,area with substrate ENWYFQS
MGESLFKGPRDYNPISSSICHLTNESDGHTTSLYGIGFGPFIITNKHLFRRNNGTLVVQSLHGVFKVKDTTTLQQHLVDGRDMIIIRMPKDFPPFPQKLKFREPQREERICLVTTNFQTKSMSSMVSDTSCTFPSMDGIFWKHWIQTKDGQCGSPLVSTRDGFIVGIHSASNFTNTNNYFTSVPKNFMELLTNQEAQQWVSGWRLNADSVLWGGHKVFMVKPEEPFQPVKEATQL [G136M],0.0563,0.0937,0.0534,0.0565,0.0524,0.0704,0.0667,0.0597,0.0722,0.0542,0.0566,0.0968,–,–,–,–,–,–,–
MGESLFKGPRDYNPISSSICHLTNESDGHTTSLYGIGFGPFIITNKHLFRRNNGTLVVQSLHGVFKVKDTTTLQQHLVDGRDMIIIRMPKDFPPFPQKLKFREPQREERICLVTTNFQTKSMSSMVSDTSCTFPSGCGIFWKHWIQTKDGQCGSPLVSTRDGFIVGIHSASNFTNTNNYFTSVPKNFMELLTNQEAQQWVSGWRLNADSVLWGGHKVFMVKPEEPFQPVKEATQL [D137C],0.0522,0.0737,0.056,0.0685,0.0886,–,0.065,–,0.0312,0.0704,0.0652,0.0716,0.0754,0.0941,0.0495,0.0496,–,–,–
MGESLFKGPRDYNPISSSICHLTNESDGHTTSLYGIGFGPFIITNKHLFRRNNGTLVVQSLHGVFKVKDTTTLQQHLVDGRDMIIIRMPKDFPPFPQKLKFREPQREERICLVTTNFQTKSMSSMVSDTSCTFPSGDGIEWKHWIQTKDGQCGSPLVSTRDGFIVGIHSASNFTNTNNYFTSVPKNFMELLTNQEAQQWVSGWRLNADSVLWGGHKVFMVKPEEPFQPVKEATQL [F140E],0.0674,0.079,0.057,0.0689,0.0666,0.0472,–,0.0593,0.0712,0.0711,0.0629,0.067,0.0706,–,0.072,0.0666,0.0546,0.0604,0.0503
MGESLFKGPRDYNPISSSICHLTNESDGHTTSLYGIGFGPFIITNKHLFRRNNGTLVVQSLHGVFKVKDTTTLQQHLVDGRDMIIIRMPKDFPPFPQKLKFREPQREERICLVTTNFQTKSMSSMVSDTSCTFPSGDGIFGKHWIQTKDGQCGSPLVSTRDGFIVGIHSASNFTNTNNYFTSVPKNFMELLTNQEAQQWVSGWRLNADSVLWGGHKVFMVKPEEPFQPVKEATQL [W141G],0.0485,–,–,0.0553,0.0532,0.0474,0.049,0.0462,0.0418,–,0.0509,0.0598,0.0555,–,–,0.0514,0.0588,0.0433,0.0588
MGESLFKGPRDYNPISSSICHLTNESDGHTTSLYGIGFGPFIITNKHLFRRNNGTLVVQSLHGVFKVKDTTTLQQHLVDGRDMIIIRMPKDFPPFPQKLKFREPQREERICLVTTNFQTKSMSSMVSDTSCTFPSGDGIFQKHWIQTKDGQCGSPLVSTRDGFIVGIHSASNFTNTNNYFTSVPKNFMELLTNQEAQQWVSGWRLNADSVLWGGHKVFMVKPEEPFQPVKEATQL [W141Q],0.0526,0.0631,0.0781,0.0607,0.0513,–,0.0531,0.0532,0.0536,0.0551,0.0504,0.0491,0.0686,–,0.0649,–,–,0.0572,–
MGESLFKGPRDYNPISSSICHLTNESDGHTTSLYGIGFGPFIITNKHLFRRNNGTLVVQSLHGVFKVKDTTTLQQHLVDGRDMIIIRMPKDFPPFPQKLKFREPQREERICLVTTNFQTKSMSSMVSDTSCTFPSGDGIFWHHWIQTKDGQCGSPLVSTRDGFIVGIHSASNFTNTNNYFTSVPKNFMELLTNQEAQQWVSGWRLNADSVLWGGHKVFMVKPEEPFQPVKEATQL [K142H],0.0524,0.0625,0.0474,–,–,0.0651,0.0649,0.0635,0.0442,0.0658,0.0633,0.0857,0.0772,0.0681,–,–,0.116,0.0647,0.0581
MGESLFKGPRDYNPISSSICHLTNESDGHTTSLYGIGFGPFIITNKHLFRRNNGTLVVQSLHGVFKVKDTTTLQQHLVDGRDMIIIRMPKDFPPFPQKLKFREPQREERICLVTTNFQTKSMSSMVSDTSCTFPSGDGIFWMHWIQTKDGQCGSPLVSTRDGFIVGIHSASNFTNTNNYFTSVPKNFMELLTNQEAQQWVSGWRLNADSVLWGGHKVFMVKPEEPFQPVKEATQL [K142M],0.0572,0.0684,–,0.0628,–,0.0516,–,0.0576,0.0641,0.075,–,0.0712,0.0662,–,0.062,0.0908,0.125,0.0705,–
MGESLFKGPRDYNPISSSICHLTNESDGHTTSLYGIGFGPFIITNKHLFRRNNGTLVVQSLHGVFKVKDTTTLQQHLVDGRDMIIIRMPKDFPPFPQKLKFREPQREERICLVTTNFQTKSMSSMVSDTSCTFPSGDGIFWKKWIQTKDGQCGSPLVSTRDGFIVGIHSASNFTNTNNYFTSVPKNFMELLTNQEAQQWVSGWRLNADSVLWGGHKVFMVKPEEPFQPVKEATQL [H143K],0.0678,0.0545,0.0636,0.0823,0.0492,0.0417,–,0.06,0.0509,0.0529,0.0403,0.0858,–,0.038,–,–,–,0.0508,0.0527
